Target: T1, photo-labile unchained HLA-A*11:01 MHC-I protein (Homo sapiens, UniProt P04439, A114D/D185E/E176A/F33Y/L180Q/S129P/T187R)
T1 construct: made in house
Experiment: Photo-labile unchained MHC-I protein treated with UV, peptides and enterokinase (SDS-PAGE band volume)
Type: biochemical
Details: Fig_S1a, UV 37C + Ek with peptide, SDS-PAGE band 1

| Sequence | Adj. Volume (Int) (replicate 1 (lanes 1-14)) | Adj. Volume (Int) (replicate 2 (lanes 15-28)) |
| --- | --- | --- |
| SLLDYVREHK [CS1027] | 11631879 | 10519299 |
| FGSLLDYVREHK [CS1048] | 15950844 | 9994572 |
| SLLDYVREH [CS1017] | 11874744 | 8988147 |
| GSLLDYVREHK [CS1037] | 10050768 | 8984178 |
| MQLMPFGCLLDY [TM1050] | 5645052 | 4409055 |
| SLLDYVREHKDN [CS1050] | 12009312 | 12015738 |
| QLMPFGSLLDY [CS1032] | 13122963 | 9307746 |
| VAIKTSPKANK [EX1018, EGFR exon 19 deletion-derived peptide] | 9646371 | 6436647 |
